# Laboratory results reported in the supplement of paper PMC9174493.
# Where a name gives a salt, the structure may show the parent alone. This is one part of the list. Single values of this set are uncertain. Values with irradiation are relative to irradiated vehicle.
# Tested on: A549-Dual
# Experiment: ISRE reporter (Lucia luciferase) activity, viability-corrected, relative to vehicle (fold change vs vehicle); higher = more activation of STING-IRF / NF-kB immune response reporter
# Settings: 10 µM; irradiation: none
row,Structure (SMILES),ISRE reporter
1,COCCCN1CCC(NC(=O)c2cc(Cl)c(N)c3c2OCC3)CC1 [Prucalopride],0.619
2,CSc1nc2cc(Oc3cccc(Cl)c3Cl)c(Cl)cc2[nH]1 [Triclabendazole],1.08
3,Cc1cc(N2CCN(C3CNC(C(=O)N4CCSC4)C3)CC2)n(-c2ccccc2)n1 (stereo not drawn) [Teneligliptin hydrobromide],1.08
